Experimental data taken from PubChem BioAssay AID1508624 (National Center for Advancing Translational Sciences (NCATS), 2021).
Screen size: about 48,000 compounds; about 120 (0.25%) were called active. Not shown: some 4% with an inconclusive outcome. Calls come from the whole dose curve; as a rule, active = well fitted activation curve with a large enough effect; inconclusive = small, poorly fitted or top-dose-only effect, or another doubt; inactive = no such curve, though single readings can be large or run the other way. This is one part of the list.

Experiment: Primary qHTS for Identification of Small Molecule Activators of Huntingtin-Antisense Promoter Activity; note: nearly all actives have a fitted effect of over 55% in size
Conditions: HEK293 HTT-AS promoter firefly luciferase reporter, 24 h; series mostly up to 57.5 µM; activity change, positive = activation: at the top concentration
How it was run: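 Firefly luciferase readout (Dual-Glo, 10 min RT) after 24 h, 37 °C compound exposure (final up to 57.5 uM) of HEK293 reporter cells cultured 24 h beforehand; PTC124 at 50 uM final as control inhibitor; activity scaled vehicle 0%, zero RLU -100%.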

Activity change, positive = activation, inactive:
NC(CO)(CO)CO -0.284%
Nc1ccc(C(=O)c2cc3c(ccc4ccccc43)[nH]2)cc1 -25.7%
CNC(=O)CN1C(=O)COc2ccc(S(=O)(=O)N3CCCCCC3)cc21 -10%
O=C(Nc1cc(Cl)cc(Cl)c1)c1cc(S(=O)(=O)NC2CCCC2)ccc1F -32.6%
COc1ccc(CN(C)c2ccc(-c3nc(-c4ccc(OC)c(OC)c4)no3)cc2[N+](=O)[O-])cc1 -6.33%
Cc1cccc(N2CCN(C(=O)C3CCN(C(=O)c4cc5sccc5n4C)CC3)CC2C)c1 (stereo not drawn) -55.3%
CCC(C)S(=O)(=O)c1oc(-c2cccs2)nc1S(=O)(=O)c1ccccc1 (stereo not drawn) -93.6%
COc1cn(CC(=O)Nc2cc(C)cc(C)c2)c(CN2CCCCC2)cc1=O -1%
CN1CCc2nc3sc(C(=O)c4ccc(F)cc4)c(N)c3cc2C1 27.7%
CCOc1ccccc1CNCc1c(C(=O)O)c(C)n(Cc2ccc(C)cc2)c1C -10.2%
CCOc1ccc(NC(=O)CN(Cc2ccccc2)S(=O)(=O)c2ccc3nc(C)sc3c2)cc1 -30.2%
CN1C(=O)c2cccc3c(S(=O)(=O)Nc4cccc(C(=O)O)c4)ccc1c23 -10.6%
CCOc1ccc(CCNC(=O)Cn2c(-c3cccs3)cc3ccccc32)cc1 -23%
COc1ccc(C(=O)c2cn(CC(=O)Nc3cc(OC)cc(OC)c3)c3ccc(OC)cc3c2=O)cc1 -15.9%
COC(=O)c1ccccc1NC(=O)Cn1c(=O)n(CCC(=O)NCc2ccc3c(c2)OCO3)c(=O)c2ccccc21 -10.7%
Cc1ccc(-c2cn3nc(N4CCCC(C(=O)NCc5ccccc5F)C4)sc3n2)cc1 (stereo not drawn) -35.6%
CC1=C(C(=O)OC2CCCC2)C(c2c(F)cccc2Cl)CC(=O)N1 (stereo not drawn) -33.1%
Cc1ccc(Cn2nc3n(c2=O)-c2cc(Cl)ccc2OC3)cc1 -5.63%
Cc1ccc(-c2csc(-c3c(N)c(C(=O)c4ccc5c(c4)OCO5)n4ccccc34)n2)cc1 12%
COc1ccc(-n2c(-c3cccc(F)c3)nc3c(cnn3-c3ccc(C)cc3)c2=O)cc1 -29.1%
CCOC(=O)c1c(S(=O)(=O)N2CCC(C(=O)NCc3cccc(OC)c3)CC2)c(C)n(C)c1C 12.2%
Cc1cccc(N(C)C(=O)Cn2c(=O)oc3cc(S(=O)(=O)N4CCCCC4)ccc32)c1 -14.3%
COc1ccc(-c2nc3ccccc3o2)cc1NC(=O)Cc1ccc(Cl)cc1 22.9%
O=C(CNC(=O)c1ccc(F)cc1)OCc1cc(=O)n2ccsc2n1 -12.1%
COc1ccc(C(=O)Nc2ccc3oc(-c4cccc5c(Br)cccc45)nc3c2)cc1 13.8% [at 11.5 µM, percent change from vehicle, -100% = no light]
CCN1CCc2c(sc(NC(=O)c3ccc(S(=O)(=O)N4CCCC(C)C4)cc3)c2C(=O)OC)C1 (stereo not drawn) -24.1%
Cc1ccccc1Cn1c(CN2CCC(C(=O)NCc3ccc(Cl)cc3)CC2)cc2ccccc21 -5.74%
Cc1c(Cl)cccc1NC(=O)C(=O)NCCc1csc(-c2ccc(C(F)(F)F)cc2)n1 -3.02%
CCCCN(C)C(=O)c1ccc2c(=O)n3nc(Nc4cc(C)ccc4C)sc3nc2c1 -22.9%
O=S1(=O)c2ccccc2N(Cc2ccccc2F)c2ccccc21 -13.3%
COc1ccc(CCNC(=O)c2ccc(-n3c(C)cc4c3CCC(C)C4)cc2)cc1OC (stereo not drawn) 9.21%
Cc1cc(C)c(OCC(=O)N(Cc2ccc(N(C)C)cc2)Cc2ccco2)c(C)c1 -33.3%
O=C(NCc1ccc2c(c1)OCO2)c1ccc2c(c1)N(Cc1c(F)cccc1Cl)C(=O)c1ccccc1S2 -17.8%
CCOc1ccc(NS(=O)(=O)c2ccc3c(c2)NC(=O)CCS3)cc1 -11.9%
CCc1ccc(CNC(=O)C2CCN(c3nn4cc(-c5ccc(OC)cc5)nc4s3)CC2)cc1 7.44%
COc1ccc(C2=NC(c3ccccc3)=Nc3ccc(C)cc3N2)cc1 -16.9%
COC(=O)c1ccccc1NC(=O)c1ccc(CN2CC(=O)N3CCCCC3C2=O)cc1 (stereo not drawn) -15.1%
COc1ccccc1N1CCN(CC(O)COc2ccc(Cl)c(C)c2)CC1 (stereo not drawn) 16.3% [at 11.5 µM, percent change from vehicle, -100% = no light]
CN1CCN(C(=O)c2ccc3c(c2)N(Cc2ccc(F)cc2)C(=O)c2ccccc2S3(=O)=O)CC1 -5.42%
COc1ccc(NC(=O)CSc2nnc(-c3ccncc3)n2-c2ccccc2)cc1 -15.3%
CCC(C)NC(=O)c1c2c(nc3ccccc13)C(=O)N(C1CCCCC1)C2 (stereo not drawn) 9%
CCOC(=O)c1cc(S(=O)(=O)Nc2ccccc2)[nH]n1 -10.1%
O=C(CSc1n[nH]c(-c2ccc(F)cc2)n1)N1CCN(c2ccc(F)cc2)CC1 -23.2%
NC(=O)c1cc(S(=O)(=O)NCc2cccc(Br)c2)cs1 -9.01%
COC(=O)c1ccc(NC(=O)Cn2c(=O)oc3ccccc32)cc1 9.25% [at 11.5 µM, percent change from vehicle, -100% = no light]
Cc1ccc(CNC(=O)c2ccc3c(c2)CCN3S(=O)(=O)c2ccc(Br)cc2)cc1 -1.86%
COc1ccc(C2CC(=O)c3cc(-c4nc(-c5cccc([N+](=O)[O-])c5)cs4)c(=O)n(-c4ccccc4N)c3C2)cc1 (stereo not drawn) -8.68%
Clc1ccc(C(Cn2ccnc2)OCc2c(Cl)cccc2Cl)c(Cl)c1 (stereo not drawn)
CCn1c(SCC(=O)Nc2cc(C)ccc2F)nnc1-c1ccccc1O 0.814%
COc1ccc(N2CC(NC(=O)C3CCCCC3)CC2=O)cc1 (stereo not drawn) -4.68%
CCN(c1ccc(OC)cc1)S(=O)(=O)c1ccc2[nH]c3c(c2c1)CCCCC3 -55.3%
CCOC(=O)CNC(=O)N1CCN(S(=O)(=O)c2ccc3c(ccn3C)c2)CC1 -7.61%
COc1ccc(CC(=O)N2CC(=O)Nc3ccc(F)cc3C2c2ccccc2)cc1 (stereo not drawn) 0.587%
CC(=O)c1ccc(NC(=O)C2CCN(S(=O)(=O)c3ccc4[nH]c5c(c4c3)CCCCC5)CC2)cc1 -28.8%
Cc1ccccc1CNC(=O)Cn1c(=O)c2cccn2c2cccnc21 -9.6%
COc1ccccc1CNC(=O)c1ccc(N2CCCC2)c(NC(=O)NCc2ccc(C)cc2)c1 -18.3%
CCCOc1ccc(C2c3c(oc4ccccc4c3=O)C(=O)N2c2nnc(C(C)C)s2)cc1 (stereo not drawn) -5.69%
Cc1ccc(-c2nc(CSc3nnc(C)n4c3cc3occc34)c(C)o2)cc1 -6.32%
Cc1ccc(NC(=O)CN(Cc2ccccc2)S(=O)(=O)c2ccc3nc(C)sc3c2)c(C)c1 -23%
Cc1cccc2nc(-c3ccccn3)c(Nc3ccccc3)n12 -41.3%
CN(C)c1ccc(CNC(=O)CCCN2C(=O)c3cccnc3Oc3ccc(Cl)cc32)cc1 -5.58%
COc1ccc(CNC(=O)c2c(O)nc3c(C)cccn3c2=O)cc1 -2.31%
CCCCOC(=O)c1ccc(-n2nnc3c(sc4nc(C)cc(C)c43)c2=O)cc1 22.9%
CC(C)Cn1cc(NC(=O)N2CCN(c3cccc(C(F)(F)F)c3)CC2)c2ccccc2c1=O -25.1%
O=S(=O)(NCCc1nnc2ccc(SCc3ccccc3Cl)nn12)c1ccccc1 -27.6%
Cc1cc(N2CCC(C)CC2)nc2ccc(NC(=O)Cc3ccccc3Br)cc12 -24.4%
COc1cc2nc(Nc3cccc(F)c3)nc(N)c2cc1OC -10.2%
CCOc1ccc(-c2nc(-c3ccccc3)c(-c3ccccc3)[nH]2)cc1OCC -36.6%
CCOC(=O)N[C@H](Cc1c[nH]c2ccccc12)C(=O)Nc1cccc(Cl)c1 -15.7%
COc1ccc(OC)c(NC(=O)c2nc(S(=O)(=O)Cc3ccc(F)cc3)ncc2Cl)c1 -94%
CC(C)n1nc(-c2cc3cc(O)ccc3[nH]2)c2c(N)ncnc21 -43.6%
CCc1ccc(C2CC(=O)Nc3c2c(=O)n(C)c2ncnn32)cc1 (stereo not drawn) -7.13%
CCOCCCN(Cc1ccco1)C(=O)c1cc2c(s1)-c1c(C)cccc1OC2 -31.1%
COc1ccc(C(=O)c2cn(CC(=O)Nc3cc(C)ccc3C)c3nc(C)ccc3c2=O)cc1 -4.24%
CC(C)Oc1ccc(CNC(=O)C2=Cc3ccccc3OC2)cc1 -0.637%
NC(=O)C1CCN(c2csc3ccc(F)cc3c2=O)CC1 9.64%
CCn1c(CN2CCN(C)CC2)nc2cc(NC(=O)c3ccc([N+](=O)[O-])cc3)ccc21 0.934%
COc1ccc(N2CCN(C(CNC(=O)c3ccc(OC)c(OC)c3)c3cccnc3)CC2)cc1 (stereo not drawn) -14.6%
CCc1ccc(OCC(=O)N(Cc2ccc(C(C)C)cc2)C2CCS(=O)(=O)C2)cc1 (stereo not drawn) -22.2%
Cc1ccc(-c2noc(CNC(=O)c3ccc(C)c(Cl)c3)n2)cc1 -10.6%
NC(=O)N1c2ccccc2C=Cc2ccccc21 -5.75%
C[C@]12CC[C@@H]3c4ccc(O)cc4CC[C@H]3[C@H]1C[C@@H](O)[C@H]2O -27.6%
CCN(CC)C(=O)C1=C(C)Nc2nc3ccccc3n2C1c1cccc(OC)c1 (stereo not drawn) -21%
O=C(Nc1ccccc1C(F)(F)F)c1ccc(F)c(S(=O)(=O)N2CCc3ccccc3C2)c1 -24.3%
O=C(NCc1ccccc1Cl)c1nnc(Cc2cccc(F)c2)o1 -16%
Cc1ccc2c(CC(=O)N(Cc3ccc(N(C)C)cc3)Cc3ccco3)coc2c1C -6.02%
Cc1ccc2oc(-c3ccc(C)c(NC(=O)/C=C/c4ccco4)c3)nc2c1 -29.8%
Cc1ccc(CNC(=O)Cn2ccn(-c3cccc(Cl)c3)c(=O)c2=O)cc1 -0.592%
COc1cccc(-c2cc(C(F)(F)F)n3ncc(C(=O)OC(C)C)c3n2)c1 -11.2%
COc1ccc(N(Cc2cc3ccccc3[nH]c2=O)C(=O)c2cccc(Cl)c2)cc1 2.95%
CC(=O)N1c2ccccc2CC1C(=O)N1CCN(c2ccccc2)CC1 (stereo not drawn) -6.48%
Cc1ccc(NC(=O)c2c(C)cc(C)nc2SCC(=O)Nc2ccc(Br)cc2)cc1 -26.7%
CCc1nc2ccc(C(=O)NCCc3ccccc3OC)cc2nc1CC -21.1%
